Measured values taken from article PMC4336329 (PLoS ONE, 2015).
The campaign covered roughly 310,000 compounds. About 2,200 (0.71%) showed an effect of 50% or more. Effects have a minus sign here. The list shows a part of the results.

Each compound was assayed against human ether-à-go-go-related gene (hERG) potassium channel (human, UniProt Q12809) (assay: primary screen, population patch clamp on CHO cells stably expressing hERG).
Chain of human ether-à-go-go-related gene (hERG) potassium channel (Q12809 whole entry, looked up): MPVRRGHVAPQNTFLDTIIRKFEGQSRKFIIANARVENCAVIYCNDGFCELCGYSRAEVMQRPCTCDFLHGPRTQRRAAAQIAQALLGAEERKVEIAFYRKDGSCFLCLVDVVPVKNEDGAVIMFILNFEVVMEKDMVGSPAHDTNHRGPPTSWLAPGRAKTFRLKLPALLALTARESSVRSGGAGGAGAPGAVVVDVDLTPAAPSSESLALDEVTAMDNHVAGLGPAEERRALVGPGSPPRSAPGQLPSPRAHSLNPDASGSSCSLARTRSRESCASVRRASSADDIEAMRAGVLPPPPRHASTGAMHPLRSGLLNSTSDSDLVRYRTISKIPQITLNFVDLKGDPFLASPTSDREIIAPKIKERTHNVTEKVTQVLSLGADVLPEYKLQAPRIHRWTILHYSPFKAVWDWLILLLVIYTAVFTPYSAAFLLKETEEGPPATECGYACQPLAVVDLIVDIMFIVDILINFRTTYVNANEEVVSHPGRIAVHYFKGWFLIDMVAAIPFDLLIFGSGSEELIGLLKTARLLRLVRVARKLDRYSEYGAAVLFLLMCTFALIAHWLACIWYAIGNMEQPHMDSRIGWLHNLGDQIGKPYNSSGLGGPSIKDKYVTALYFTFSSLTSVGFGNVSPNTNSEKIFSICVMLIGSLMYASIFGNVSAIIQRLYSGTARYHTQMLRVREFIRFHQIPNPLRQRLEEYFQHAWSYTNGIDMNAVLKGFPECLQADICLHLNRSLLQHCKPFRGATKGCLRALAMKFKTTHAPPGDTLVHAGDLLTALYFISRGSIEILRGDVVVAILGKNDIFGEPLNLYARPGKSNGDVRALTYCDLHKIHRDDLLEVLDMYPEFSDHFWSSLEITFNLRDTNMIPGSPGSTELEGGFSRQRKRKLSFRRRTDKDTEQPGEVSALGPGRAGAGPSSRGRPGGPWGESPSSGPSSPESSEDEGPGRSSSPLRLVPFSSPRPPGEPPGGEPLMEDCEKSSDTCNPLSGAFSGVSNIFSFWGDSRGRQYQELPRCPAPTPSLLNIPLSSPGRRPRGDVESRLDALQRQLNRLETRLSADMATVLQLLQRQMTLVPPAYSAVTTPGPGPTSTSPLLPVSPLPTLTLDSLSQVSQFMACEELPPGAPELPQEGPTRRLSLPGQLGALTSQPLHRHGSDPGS

In order of rising “hERG current change (%, negative = inhibition) at 1uM” value:
1. CC1CCCCN1Cc1c(O)ccc2c(=O)c(-c3ccc(Cl)cc3)coc12 (centres unmarked)  -32%
2. Cl.O=C(CN1C2=NCCN2c2ccccc21)c1ccco1  -11.9%
3. O=C(NCc1cccs1)C1CCN(S(=O)(=O)c2cccs2)CC1  -8.36%
4. CC(=O)N1CCc2cc(S(=O)(=O)N3c4ccccc4CC3C)ccc21 (centres unmarked)  -3.37%
5. COc1ccc(C(=O)Nc2nc3c(s2)CCCC3)cc1S(=O)(=O)N1CCCc2ccccc21  -1.71%
6. CCOC(=O)c1[nH]c(C)c(C(=O)c2cc(F)ccc2F)c1C  -1.1%
7. CCC(C(=O)Nc1cnccn1)c1ccccc1 (centres unmarked)  0.837%
8. O=C(NCc1cccc(C(F)(F)F)c1)C1CC(c2ccccc2[N+](=O)[O-])=NO1 (centres unmarked)  1.35%
9. CC1CCCC(C)N1/N=C/c1ccccc1Br (centres unmarked)  3.55%
10. CCC(C)NC(=O)c1cn(C)c(=O)c2cc(OC)c(OC)cc12 (centres unmarked)  4.58%
11. CCC1CCc2[nH]nc(C(=O)O)c2C1 (centres unmarked)  5.05%
12. COc1cc(C2CC(=O)c3cnc(NC(C)=O)nc3C2)cc(OC)c1OC (centres unmarked)  5.17%
13. O=C(CC1C(=O)NCCN1Cc1cccc(F)c1)NC1CCCCC1 (centres unmarked)  5.93%
14. Cc1cccc(Cn2cnc3ccccc32)c1  6.04%
15. C#CCNC(=O)c1ccc(OCc2ccccc2)cc1Cl  7.16%
16. Cc1cc(Br)c2nc3c(c(C(=O)O)c2c1)CCCCC3  7.18%
17. CC(=O)N1CC[n+]2c(-c3ccc(Cl)cc3)csc21.[Br-]  8.12%
18. COC(=O)C1CCN(C(=O)Cn2nnc(-c3cccc(F)c3)n2)CC1  9.67%
19. CC(=O)O.Oc1[nH]c2ccccc2c1N=Nc1ncnc2c1oc1ccccc12  10.4%
20. O=S(=O)(CC(O)COc1ccccc1Cl)c1ccccc1 (centres unmarked)  11.2%
21. COc1ccc(CN(C)C(=O)C23CC4CC(CC(Cl)(C4)C2)C3)c(OC)c1OC  11.2%
22. O=C(CS(=O)(=O)c1ccccc1)c1cc2ccccc2oc1=O  11.6%
23. N#C/C=C/C(=C\Nc1ccc(Cl)cc1)S(=O)(=O)c1ccccc1  14.4%
24. CC1(C)OC(=O)C(=CNc2cccc(C(=O)O)c2)C(=O)O1  15.1%
25. CCC(=O)NC1OC(CO)C(O)C(O)C1O (centres unmarked)  15.1%
26. Cn1ncc2c(=O)n(CC(=O)NC34CC5CC(CC(C5)C3)C4)cnc21  16.4%
